Data published in the supplement of paper PMC4466236.
In all, about 33,000 sequences were measured (“E-score (dimensionless, -0.5 to 0.5)”: median about -0.058, highest 2% from about 0.35 on). Some of the results follow.

test system: MvaT; assay: PBM 8-mer E-score (mean of HK and ME arrays) (E-score (dimensionless, -0.5 to 0.5)); higher = stronger relative binding preference; most listed sequences are background and not binding sites
Summary of the method: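 Reported values are rank-based E-scores, taken as the mean of two universal arrays and parsed with a custom script. Each 8-mer score falls between -0.5 and 0.5. The arrays, ME and HK, were double-stranded 60-mers with a constant 25-mer primer region and a variable 35-mer region covering all 8-mers. They were probed, by an earlier protocol, with full-length P. aeruginosa MvaT carrying an N-terminal glutathione S-transferase fusion.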

Sequence | PBM 8-mer E-score
ACGAGTGA | -0.0472
TCGTTAGA | -0.0242
CGTATGGC | -0.21
GTCTTGGA | -0.00209
CCGCGCCC | -0.155
AAGAGTAC | -0.0268
AATAGAGC | 0.107
GGCCCGGA | -0.27
TCTCAAGA | -0.0252
CAAAATCA | 0.127
CGAGGTCA | -0.161
GCTCCCGA | -0.296
AGCTGCGC | -0.214
AGGGAAGG | -0.191
TAAATCTA | 0.183
CCATTCTC | -0.0842
ACTTGCGC | 0.123
CGGTGTAG | -0.157
ATAGTACA | 0.247
AACGCAAT | 0.207
AAGCATCA | -0.105
ACCACTTC | -0.167
GATGGTGC | -0.153
AGGTGCTA | -0.145
ATGAACTA | 0.152

Sequence | PBM 8-mer E-score
ACGTCTTC | -0.0415
ACCTATGC | -0.24
CGCGTTAG | -0.087
ATACGTGA | 0.0838
CCCAGCCA | -0.172
ATGTCTAG | 0.0376
CCTCGGTA | -0.139
CGGCATAG | -0.079
TATTTTAA | 0.41
CCCATCAG | -0.277
ACCCCAGC | -0.103
CCCGACAG | -0.197
ATTACGAA | 0.206
ACGCAAAC | 0.026
ATATGAAT | 0.288
AGGCCGGC | -0.26
CCCGTTAG | -0.00293
AGGTCCTC | -0.26
AGCGTGAA | -0.185
TAGGCAGA | -0.116
GCTGGGCA | -0.217
GAGTGATC | -0.195
ATTTACGA | 0.167
ATCTGACC | -0.125
AAGACCGC | -0.193

Sequence | PBM 8-mer E-score
CATCATCG | -0.118
CCACCTAG | -0.113
ACCAACTA | 0.14
TCCGGAGA | -0.156
TTACACAA | 0.212
TCGCTGCA | -0.0624
CTGGATTA | 0.212
ATACTCGA | 0.162
CGCGCGCG | 0.133
CTGTAGAC | -0.132
AACGTAGC | -0.0969
ATGACTTA | 0.00279
GCTGCTCC | -0.222
CACGGAAG | -0.108
GAGCGCGA | -0.147
ACATGGGC | -0.0383
TCCGCTAA | -0.0171
ACCCTTCT | -0.195
CGCCGTCA | -0.138
CGCTGTAC | -0.228
GAGGCGAC | -0.276
AGCAACTA | 0.0916
CCTTAGTC | 0.026
CAAAGTTA | 0.265
ATCTTAAT | 0.232

Sequence | PBM 8-mer E-score
CTGGTTAC | 0.0697
CAAGCGAA | -0.227
TCGGCCCA | -0.157
ATTTGGGG | -0.0637
GGCTCGGA | -0.2
TCGTTACA | 0.0528
GGTAGGGA | -0.155
AAGGCCGG | -0.208
GCTTAGAA | 0.181
CTGTAGCA | -0.0514
AATCCATC | -0.0434
CAGGTTGA | -0.174
CCTCCATC | -0.235
CACATAGG | -0.0828
AAAATAAG | 0.331
ATTGCTTC | -0.0649
AAAACAAC | 0.282
ATCGCGGC | -0.0882
CCATGCAG | -0.193
ACATTTCT | 0.265
AGGGCAAC | 0.114
CACTCAAG | -0.0585
AACCGGCA | -0.118
CGAACGCA | -0.0442
GCGCCTCA | -0.168

Sequence | PBM 8-mer E-score
ATTTCCAG | 0.181
CCCATATC | -0.0129
CCCTTAAA | 0.0558
CGCAACAA | 0.297
GCTTCTAA | 0.0601
CTAAGAAA | 0.017
ACTACCCT | -0.128
ACCCTTAA | 0.035
AGCTGCAC | -0.122
GACTCCAC | -0.0919
ACTCTTTG | 0.0293
CCAACCAC | -0.123
AACTCACA | 0.0884
TCGGGCCA | -0.231
ACAGGGGT | -0.121
AGCAGCAA | -0.0844
GGGCGGGA | -0.214
AGCGTTTG | 0.0257
CGGAGTGC | -0.169
ACCAACAC | 0.0519
CCGTCCAA | -0.136
GCAGGCAC | -0.273
ACGACCGT | -0.176
AGGATCGC | -0.241
CGAGTACA | 0.0588

Sequence | PBM 8-mer E-score
CGCCCCAA | -0.115
GCTGTCCC | -0.209
CGTTTCTC | -0.096
AGCGTGCC | -0.322
ACTGGCTA | -0.0991
CTCAGTAC | -0.097
GAGTTCCA | -0.16
CAACAAGA | 0.176
AGGACCAA | -0.206
AACTCCAA | 0.118
CATAAAAG | 0.159
CCACCTAC | -0.148
AGATAGGA | -0.071
ACATCGAA | 0.154
AGGAGTAG | -0.19
ACTTACAT | 0.343
AGAAACAC | 0.052
CCCGCTAC | -0.247
CCTCTGTC | -0.129
CACGTAAA | -0.0431
AAAAGGAT | 0.0697
GACGTCAC | -0.19
ACCATAAC | 0.196
CGTAGGAA | -0.131
ACAGCCGT | -0.211

Sequence | PBM 8-mer E-score
AGACCTGG | -0.207
TCATTAGA | 0.0266
ATTACTAC | 0.261
TCGCGCCA | -0.125
ATTAGCAG | 0.201
AGTTTCGA | 0.193
CCATTGGC | -0.3
ATGGATGG | -0.109
CGGCTCGA | -0.188
TCTAGTAA | 0.0881
CATCCTGG | -0.174
ATTACCGG | 0.0376
GCTAGCGA | -0.181
ACGGAGAC | -0.0662
GATTAACA | 0.278
ACAAAGCG | -0.0812
GGCGTATA | 0.0954
ACCGAACC | -0.085
ATGCTAGA | 0.0338
AAGTTATA | 0.442
AACGAAAA | 0.105
AACGAGAA | 5.73e-05
CTTACGTA | -0.0291
CTAACTCC | 0.0568
TTATCGAA | 0.22

Sequence | PBM 8-mer E-score
ATCGTAGA | -0.126
TAGTCGGA | -0.0242
ATAAGAAA | 0.24
ACTAACCG | -0.072
ACCCGAGT | -0.153
AACTTTCC | 0.315
TACCTACA | 0.0674
ACTCGGGC | -0.223
ATGATGTA | 0.168
AGCACATA | 0.14
ATTTCCCC | 0.0663
GATGCACA | 0.00969
GTTGTCGA | 0.00974
GGTATTTA | 0.27
AAAAGAAG | 0.0172
ACGGACCG | -0.239
GAACTTGA | 0.266
ATGCTTTC | -0.146
CTAACCGC | -0.111
CCGGAGAG | -0.196
AGGTGGTG | -0.0424
CTATAGAA | 0.103
GATGATCC | -0.00943
GCGGGAAC | -0.274
AACCTCCA | -0.115

Sequence | PBM 8-mer E-score
GACTGCGA | -0.115
GATGGTGA | -0.0523
CCCACCAC | -0.143
ACCGCCTG | -0.238
ATCTACCA | 0.122
GAGTGACA | -0.172
GAGGACTA | -0.228
CTAACGTC | -0.213
CGCTGGAG | -0.194
CACGAACG | -0.246
ATGCCTAA | 0.00896
AAGAAGCG | -0.0282
CGATTCAC | -0.0249
AACTGGAC | 0.0417
ATACGCAA | 0.107
ACTGGGGA | -0.123
AGTCTTGA | -0.0451
AGGACACG | -0.309
AATTATCA | 0.325
CCGGGCTC | -0.267
ACGCCAAG | -0.228
GAACGAGC | -0.255
AGGGTCGC | -0.264
AATAAGCA | 0.251
AGGGATAG | -0.216

Sequence | PBM 8-mer E-score
AGATCGGC | -0.141
CTAGTTCA | 0.0957
ATTTAGAC | 0.125
GCGCGTAA | 0.0794
TACTGATA | 0.185
AGTCACAC | -0.0915
CTTTTTGC | 0.0809
AGATGTAG | 0.0855
GCAGCGTA | -0.0147
AAAGGCCT | -0.233
AAAGAACC | 0.108
CTGACCGA | -0.113
GCTCTCCA | -0.273
AACTTTCA | 0.351
AGAAAGAA | 0.073
GCTGCTGA | -0.12
AGGTGCGA | -0.0523
AACCCCCG | -0.297
AACCCCAG | -0.189
AACTGCGA | 0.0683
ATTTTTCC | 0.0867
CTGGAAGA | -0.00863
CCAACGCC | -0.167
ATTGCAAC | 0.102
AAACCGGG | -0.183

Sequence | PBM 8-mer E-score
TAGATAGA | 0.188
TCATTCGA | -0.0454
CAAGCTGG | -0.17
AGCTAAAG | -0.183
GGCTGCGA | -0.254
CAGTCCGC | -0.193
CACCGTGG | -0.246
AAACCTTA | 0.175
AAACTATA | 0.334
ACTACGTG | -0.0922
CATCAAAG | -0.0265
ATGCGAGA | -0.0612
ACGACGCC | -0.263
CAAATACC | 0.197
CCGCTGCC | -0.297
GGTAGTTA | 0.212
ACGCTGGG | -0.144
CGGCGGGC | -0.219
GTGATTCA | 0.0125
CGATGGAG | -0.147
CGTACGAC | -0.239
CAGATCAC | -0.0846
GGAGTCGA | -0.193
CGTAATTA | 0.31
ATGGACGG | -0.147

Sequence | PBM 8-mer E-score
AGGCAAGG | -0.222
CGGCAGGC | -0.255
ACATATAC | 0.287
ACTGGGAT | -0.00488
AGATGAGC | -0.114
TATGTAGA | 0.184
CACGAGGA | -0.245
CCGAGCTA | -0.15
CATGCAAG | -0.0275
GGAACGGA | -0.238
AAAAGTGA | 0.0292
GAGTCATA | -0.0177
ATATTTAC | 0.36
ATGGTGGC | -0.17
CTACAGAG | -0.143
GGAATATA | 0.329
GCACGCAA | -0.0708
CGCCTAGC | -0.287
CGCCTACA | -0.0806
AGTAACAA | 0.232
ATACTAAA | 0.328
AGCCAAAC | -0.000144
CGAATCTC | -0.26
ATCGTGAG | -0.109
CGCGTCAA | -0.0539

Sequence | PBM 8-mer E-score
GGCTTTAA | 0.135
CTGCGTCC | -0.266
CAATCGGG | -0.0353
GAGATCTC | -0.136
AGCAAATG | 0.0498
GGCATTAC | -0.108
TAGAGACA | 0.123
ATCCTGTA | 0.119
TACGTGCA | 0.0131
CACATCAA | -0.101
GGGTCGTA | -0.252
GACACGAA | -0.0595
GAATCAAC | -0.215
AGCTCTAG | -0.173
CATGGGTC | -0.179
GCGTTATA | 0.252
GACTCCCA | -0.195
CCTTGAAG | -0.261
ACCCCATA | -0.17
AGAAGGAT | -0.0825
TAGGGGAA | -0.0502
ACAGTCCC | -0.0231
GCCATTAA | 0.264
GCATGCAC | -0.161
CCGAATCA | 0.0511

Sequence | PBM 8-mer E-score
AAGTGAAG | -0.102
AAACGGCT | 0.00649
ACTATCAT | 0.286
ATGGAGTG | -0.0816
TCAATCAA | 0.058
AGGTTAGA | -0.0314
AGTTCACA | 0.141
CGCCAGGC | -0.209
CTTTTCCA | -0.066
AGTACTCG | -0.0302
ACTCCGCT | -0.112
CGTGCCTA | -0.175
CTCAGGCC | -0.241
ATCCCCCC | -0.221
ACCGCAAC | 0.00986
CGTATATC | 0.143
CCATTAGC | -0.0177
CGATTCAG | -0.128
GCTGTCTA | -0.193
